Among the data in PMC12136788 are binding signal values, retold here.

T1: UNK ZnF1-6 (called full-length) (human, UniProt Q9C0B0 30-357)
T1 sequence: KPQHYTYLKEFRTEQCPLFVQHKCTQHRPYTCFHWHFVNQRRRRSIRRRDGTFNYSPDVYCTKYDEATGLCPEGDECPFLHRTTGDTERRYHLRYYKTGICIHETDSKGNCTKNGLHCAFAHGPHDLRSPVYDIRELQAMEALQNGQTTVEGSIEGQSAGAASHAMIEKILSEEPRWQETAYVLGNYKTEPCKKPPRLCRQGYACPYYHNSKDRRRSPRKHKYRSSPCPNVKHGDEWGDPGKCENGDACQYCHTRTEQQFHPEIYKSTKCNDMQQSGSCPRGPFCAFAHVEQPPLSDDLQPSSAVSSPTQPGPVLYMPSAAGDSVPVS

B1: ENSG00000110497:stop:overlap|stop_codon|ENSG00000110497|stop_codon|NA|stop_codon (ssRNA)
RNA: GGGAGUUCUACAGUCCGACGAUCUGGAUGGUGGCAGCAGCAGGGGGGACGCUGCAGGCCCUAGGGGAGAACCACGGAACAGGUAGAGACAAACGUUGCACUGGUGCCUCCCCUCGAACCGCCAAGCAGAAACCGGACCUCACACAACAGAGGAUUGAGCAUCA
B2: chr3:58172026:58172127:+|3pUTR|ENSG00000136068|msi1|FALSE|unique (ssRNA)
RNA: GGGAGUUCUACAGUCCGACGAUCGGCAGACCUUUAGGUUUUGCUGCUUAGUCCUGAGGAAGUGGCCACUCUUGUGGCAGGUGUAGUAUCUGGGGCGAGUGUUGGGGGUAAAAGCCCACCCUACAGAAAGUGGAACAGCCCGGACAACAGAGGAUUGAGCAUCA
B3: chr1:54779711:54781242:-|three_prime_utr|ENSG00000006555|control|control|control (ssRNA)
RNA: GGGAGUUCUACAGUCCGACGAUCGGGACCCCGCCCAGGCCCCGCCCAGCUGAUGGGACCAGGUCCGGAUGGACUCCCUGCCUUAGGCUGACCUGGGAGCGGAGCCAGUUCGAUUCUUGGUCGGGAAUUGUGAAUGGGGAUGUUCAACAGAGGAUUGAGCAUCA
B4: chr10:91942452:91942553:+|CDS|ENSG00000095564|unk|total|mutant (ssRNA)
RNA: GGGAGUUCUACAGUCCGACGAUCAGUUCUAUGGAAGAUUCACCUACUACAGAGCGAUUGAAUUUUGACAGAUUUGAUAUAUGCCGAUUGUUACAACAUGGUGCAUCACUCCUGGGAUCUGCUGGUGCCGAAUUUGAAGUCCAACAACAGAGGAUUGAGCAUCA
B5: chr8:23844609:23844711:-|3pUTR|ENSG00000159167|msi1|total|mutant (ssRNA)
RNA: GGGAGUUCUACAGUCCGACGAUCUUCCGGGGUGUUGACACACCAGUUUUGAGUGUACUGUGCCUGGUUUGAUUUUUUUAAAGCCGUUCCUAUUUUCUAUCCCCCUUAAAGAAAAUUGCAUGAAACCCGGCUUCUGUAAUCAAUCAACAGAGGAUUGAGCAUCA
B6: ENSG00000159842:stop:overlap|stop_codon|ENSG00000159842|stop_codon|NA|stop_codon (ssRNA)
RNA: GGGAGUUCUACAGUCCGACGAUCACCCCCCCAUUUCCUUCGCAGAACUCAAGCGGAACACACUGUACUUCUCCACCGACGUGUAGCCCGAGGCAGGGUGGCUGCGGGCGGGUGGUGGAACCAGCCCCUCCAGCCUGGGGUCCACAACAGAGGAUUGAGCAUCA
B7: chr4:169989555:169989656:-|3pUTR|ENSG00000198948|unk|total|mutant (ssRNA)
RNA: GGGAGUUCUACAGUCCGACGAUCUUGGACAACUCCCUUCCUCUCUCUGGGAUUUAAUCUUUUUCAUCUGUAAAAUAUGCAGGCCGUACUCGAGGGUCUACAGGAUCCCUUCCCGUUGAAACAUUUACCGUUCACAGAAAGUUUCAACAGAGGAUUGAGCAUCA
B8: chr12:122133860:122133961:+|CDS|ENSG00000175727|msi1|total|mutant (ssRNA)
RNA: GGGAGUUCUACAGUCCGACGAUCUUUUGUGCACCCCAAACCUGUAUCCUUGACUGGGGGCAGGCCUAAGCAGCCCCACAAAACCGUGCCUGCUCCCAAACCAGAGCCCGUGUCCUUGGUGUUGAAGAAUGCCCGUAUCGCCCCCAACAGAGGAUUGAGCAUCA
B9: chr14:39032579:39032680:-|3pUTR|ENSG00000100934|msi1|FALSE|bound_elsewhere (ssRNA)
RNA: GGGAGUUCUACAGUCCGACGAUCUGAUUUUAUAAUGGUAAUUUUCAUGAUGAUAAUGUUUUUGGUUAUUUGGAAAGAUAGUUUAGAGAUGAAAGGUUUUUUUGGGUAACAAUCCCGCAGCUGACAAAAAAUGUGAAAUUUCCACAACAGAGGAUUGAGCAUCA
B10: ENSG00000070961:be:win_2801|CDS|ENSG00000070961|bound_else_gene|NA|bound_elsewhere_windowed (ssRNA)
RNA: GGGAGUUCUACAGUCCGACGAUCGUCAUGCAUUCUAUCAACUUGUAGUAGUCUUUACACUCUUAUUUGCUGGAGAAAAGUUUUUUGACAUUGAUAGUGGAAGAAAUGCUCCUUUGCAUGCUCCUCCUUCAGAACAUUAUACUACAACAGAGGAUUGAGCAUCA
B11: chr14:55043969:55044070:+|CDS|ENSG00000180008|unk|total|mutant (ssRNA)
RNA: GGGAGUUCUACAGUCCGACGAUCUUUUUACUUCGAGACUCAGCACAGGAAGACUAUUUAUUCUCUGUCCGUUUCCGACGCUACCGUCGUUCUCUUCAUGCCCGAAUUGAACAGUGGAAUCACAACUUCCGCUUUGAUGCACAUCAACAGAGGAUUGAGCAUCA
B12: chr8:93925380:93925481:+|3pUTR|ENSG00000164951|msi1|total|mutant (ssRNA)
RNA: GGGAGUUCUACAGUCCGACGAUCAUUUAUUUCUAAAUGUUUUGACUGGGCAUUUUUCUUUUAAUGAAAUAUGUGGACUGCUCCCGCAAACCCUAUUUUCAGCUACUAUUUGAAUAUUCUUGAACACCACCACUGAAGAGUUUCCAACAGAGGAUUGAGCAUCA
B13: ENSG00000124006:stop:overlap|stop_codon|ENSG00000124006|stop_codon|NA|stop_codon (ssRNA)
RNA: GGGAGUUCUACAGUCCGACGAUCCGAAGACCCGGCGGCUCUGGUCCCGCUUCCCCCCAUGGCGACGAACAGCUGGCACUGAGUAGCAGCUGCCCCCAUAGUUUGGGGCCCACAUUCCUCUGUCCCACCUCCCUGCCAUUGCUUCAACAGAGGAUUGAGCAUCA
B14: ENSG00000138660:stop:overlap|stop_codon|ENSG00000138660|stop_codon|NA|stop_codon (ssRNA)
RNA: GGGAGUUCUACAGUCCGACGAUCCUGUAUUAGAACUGUCUGAUUCUGGCAUAAGGCAUUCUGACACAGAUCAACAGACUCGAUAGGGUAAAAUUGUGUGACCUUGUUUAUCAGUUAUGACCAAAUGUUAAAAACCAACUAGAACAACAGAGGAUUGAGCAUCA
B15: chr8:11323570:11323671:+|3pUTR|ENSG00000104643|unk|total|mutant (ssRNA)
RNA: GGGAGUUCUACAGUCCGACGAUCGAGCAUACAUAUACAAUGUGUUUCAAAUGCUGCUUGUAAAAUUAAACCAUCAUCCCGAACCGAGUUAAUUUAUUAUAAUCAAGCUACAAACCGGUUUUCUUAAACCAGAGAUGCACUGCCCAACAGAGGAUUGAGCAUCA
B16: chr20:18487131:18487232:-|3pUTR|ENSG00000089050|msi1|FALSE|unique (ssRNA)
RNA: GGGAGUUCUACAGUCCGACGAUCAAAUAUAGUAACCAGUAACCACAGCUAGCUGUAAAAUUGAAAAUUCAGUUCAGUCAAACUAGCCAUAUUUCAAGUGCUCAACAGCCACUGGUGGCUAUUGGUUACCUUACUGACCAGCCACAACAGAGGAUUGAGCAUCA
B17: chr17:31995613:31995700:+|CDS|ENSG00000178691|msi1_unk|total|mutant (ssRNA)
RNA: GGGAGUUCUACAGUCCGACGAUCAGCAUGUCUGAAUUUCUUGAAUCUGAAGAUGGGGAAGCCGAACAGCAAAGAACAUACCGCCGUGGCCACAAUCGUCUGUAUUUCCACCGUGAUACCUGCUUACCUCUCCGUCCACAAGAACAACAGAGGAUUGAGCAUCA
B18: chr5:173232108:173232568:-|three_prime_utr|ENSG00000183072|control|control|control (ssRNA)
RNA: GGGAGUUCUACAGUCCGACGAUCAAGGGGCUCCCAACAUGACCCUGAGUCCCCUGGAUUUUGCAUUCACUCCUGCGGAGACCUAGGAACUUUUUCUGUCCCACGCGCGUUUGUUCUUGCGCACGGGAGAGUUUGUGGCGGCGACAACAGAGGAUUGAGCAUCA
B19: chrX:14865087:14865190:-|CDS|ENSG00000181544|unk|FALSE|unique (ssRNA)
RNA: GGGAGUUCUACAGUCCGACGAUCAUAUUUUUUACUAAUCCUUCACAGUACUAAUAAAUUUGAAAUGCGUUUGAGUUUUAAACUAGGCUAUGAGAUGAAGGAUGGCCUAAGGGUCCUUAAUGGCCCUUUAAUUUUAUGGAGGCACAACAGAGGAUUGAGCAUCA
B20: ENSG00000107863:be:win_3201|CDS|ENSG00000107863|bound_else_gene|NA|bound_elsewhere_windowed (ssRNA)
RNA: GGGAGUUCUACAGUCCGACGAUCAGCAGAACAGUUGCCAAAAACACCUCGCCAGAGUCUCAGCAUCAGGCAAACUUUGCUUGGUGCUAAAUCAGAGCCAAAGACUCAAAGCCCACACUCUCCGAAGGAAGAGUCGGAAAGGAACAACAGAGGAUUGAGCAUCA
B21: chr9:3247878:3248185:-|CDS|ENSG00000080298|control|control|control (ssRNA)
RNA: GGGAGUUCUACAGUCCGACGAUCCGAAUAUAUGUUUUACUUAGUAGAACAUCGUGUUGCUCAGGCAACAGGAGAGACUCCUAUAGCAGUCAUGGGCGAGGUAAGAGAGGCUGAAAGAGCUGUGACCCACUGGGUUAUUAAAAACAACAGAGGAUUGAGCAUCA
B22: chr11:28036422:28036524:-|CDS|ENSG00000121621|unk|total|mutant (ssRNA)
RNA: GGGAGUUCUACAGUCCGACGAUCCAGCUCAAUGAUUCUCUCCGCAAAGAACUUCAGCCUAUUGUAUAUACACCAGAAGACUGCCGAAAAGCUUUUCAAAAUCCGUCUACAGUAACCUUAAUGAAACCAUCAUCAUUUACUACACAACAGAGGAUUGAGCAUCA

This is one part of the list.

The test deals with T1, UNK ZnF1-6 (called full-length). Briefly: nsRBNS (natural sequence RNA bind-n-seq); RBNS binding buffer (assumed for nsRBNS): 25 mM Tris pH 7.5, 150 mM KCl, 3 mM MgCl2, 0.01% Triton X-100, 500 ug/ml BSA, 20 U/ml SUPERase-In, 4 C; UNK is unkempt and MSI1 is Musashi-1; names of the RNAs are library labels; protein concentration not given here; high values mean tight binding.
B1: the binding signal worked out at 0.885 enrichment R.
The molecule B2 returned a binding signal of 0.805 enrichment R.
The result for B3 reads 0.779 enrichment R; that for B4, 0.379 enrichment R; that for B5, 0.291 enrichment R.
The result for B6 reads 0.667 enrichment R; that for B7, 0.809 enrichment R.
The result for B8 reads 0.525 enrichment R; that for B9, 0.608 enrichment R; that for B10, 0.672 enrichment R.
B11 displayed a binding signal of 0.31 enrichment R.
The molecule B12 returned a binding signal of 0.657 enrichment R.
The result for B13 reads 0.635 enrichment R.
The result for B14 reads 0.713 enrichment R.
The molecule B15 came in with a binding signal of 0.442 enrichment R.
The result for B16 reads 0.375 enrichment R; that for B17, 0.598 enrichment R.
The result for B18 reads 0.904 enrichment R; that for B19, 0.49 enrichment R.
The result for B20 reads 0.477 enrichment R.
Regarding B21, the binding signal came out at 1.08 enrichment R.
The result for B22 reads 0.38 enrichment R.
